# From patent publication US11478470B2, “Combination product of Bcl-2 inhibitor or Bcl-2/Bcl-xL dual inhibitor and BTK inhibitor and use thereof in the prevention and/or treatment of diseases” (ASCENTAGE PHARMA (SUZHOU) CO., LTD., priority 2018, dated 2022)
# Tests used:
# Assay in all cases: cells
# [1] = test system: Z-138 (mantle cell lymphoma (MCL)); details: Homo sapiens, Z-138, 72 h, read-out: IC50 of Ibrutinib for inhibition of proliferation
# [2] = test system: KMS-11 (multiple myeloma (MM)); details: Homo sapiens, KMS-11, 72 h, read-out: IC50 of Ibrutinib alone for inhibition of proliferation
# [3] = test system: DOHH2 (follicular lymphoma (FL)); details: Homo sapiens, DOHH-2, 72 h, read-out: IC50 of Ibrutinib alone for inhibition of proliferation
# [4] = test system: RPMI-8226 (multiple myeloma (MM)); details: Homo sapiens, RPMI-8226, 72 h, read-out: IC50 of Ibrutinib alone for inhibition of proliferation
structure (smiles),measurement,setting,value
"C=CC(=O)N1CCC[C@@H](n2nc(-c3ccc(Oc4ccccc4)cc3)c3c(N)ncnc32)C1 [Ibrutinib, reference compound]",IC50,[1],10.6 µM
same,IC50,[2],14.8 µM
same,IC50,[3],0.021 µM
same,IC50,[4],18.7 µM
